Measurements from the supplement of paper PMC3334620.
Over roughly 33,000 sequences, “E-score (-0.5 to 0.5)” has its median near -0.032; the highest 2% begin near 0.36. Some of the results follow.

Biological target: T1, Sko1 (UniProt Q02100)
T1 sequence: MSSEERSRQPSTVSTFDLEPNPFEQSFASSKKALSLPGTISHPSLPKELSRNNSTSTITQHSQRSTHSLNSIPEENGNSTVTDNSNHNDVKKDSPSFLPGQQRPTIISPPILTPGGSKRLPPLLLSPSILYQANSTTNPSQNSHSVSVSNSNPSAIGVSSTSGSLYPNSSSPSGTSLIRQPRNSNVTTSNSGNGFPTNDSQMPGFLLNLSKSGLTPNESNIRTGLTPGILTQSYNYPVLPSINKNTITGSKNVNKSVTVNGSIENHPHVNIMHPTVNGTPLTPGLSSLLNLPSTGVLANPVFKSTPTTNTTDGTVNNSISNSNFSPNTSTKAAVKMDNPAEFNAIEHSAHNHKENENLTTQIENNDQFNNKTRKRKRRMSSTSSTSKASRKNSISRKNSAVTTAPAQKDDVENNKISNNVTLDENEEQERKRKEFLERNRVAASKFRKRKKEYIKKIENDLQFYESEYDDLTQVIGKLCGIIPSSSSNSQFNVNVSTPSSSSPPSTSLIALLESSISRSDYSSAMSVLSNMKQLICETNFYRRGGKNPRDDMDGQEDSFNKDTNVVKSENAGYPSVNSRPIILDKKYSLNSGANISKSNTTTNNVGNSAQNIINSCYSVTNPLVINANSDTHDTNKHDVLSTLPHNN
Assay: PBM E-score (8-mer binding enrichment) (E-score (-0.5 to 0.5)); higher = stronger / more preferred TF binding; most listed sequences are background and not binding sites
Conditions: protein concentration: 200 nM; construct: GST-full length
Method: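 Universal 'all 10-mer' protein binding microarrays (Agilent AMADID 015681) probed with GST-tagged S. cerevisiae TFs (full-length or DBD) made by in vitro transcription/translation (PURExpress), about 100-200 nM. Bound TF was detected with fluorescent anti-GST. Each ungapped 8-mer (which stands for itself and its reverse complement) is scored by the PBM enrichment score (E-score), a modified Wilcoxon-Mann-Whitney statistic from -0.5 to +0.5, computed with the Universal PBM Analysis Suite. Scale: above 0.35 generally sequence-specific binding.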

| Sequence | PBM E-score |
| --- | --- |
| AGGAGGGG | -0.109 |
| AAATTGAA | 0.192 |
| CTCACGAA | 0.138 |
| AAGAGAAC | 0.0447 |
| ATATGGGA | -0.158 |
| CCTAGCCA | -0.108 |
| GATACTCC | -0.0688 |
| AGCGAATC | 0.0742 |
| CAGTATAA | -0.00767 |
| AAACAGTC | -0.134 |
| GCCTAGAC | -0.174 |
| CGAGTCGA | -0.122 |
| TCGTTTCA | 0.0611 |
| ACATTGCC | -0.177 |
| CGGGAGAG | -0.313 |
| CTTGACGA | 0.17 |
| GATACCAA | 0.0663 |
| CATCGCGC | 0.048 |
| CTCGCAAC | -0.00447 |
| GCCTACGC | 0.123 |
| AATAATAG | 0.111 |
| ACGTGGTA | 0.391 |
| CAAAAAAG | 0.19 |
| AAAGTATG | 0.0567 |
| CCCACGCA | 0.109 |

| Sequence | PBM E-score |
| --- | --- |
| ATTAATCC | 0.0871 |
| TCTGCTAA | -0.0687 |
| AGTTAATG | 0.301 |
| ACGTGGTC | 0.364 |
| CTTGCTAC | -0.045 |
| ACTGGATA | 0.0924 |
| AACCCCGT | -0.155 |
| ACACTTAA | 0.184 |
| ATGTAGGG | -0.129 |
| AGGAACCC | -0.32 |
| ACCGCACT | -0.0608 |
| CCTATTTA | -0.0505 |
| CAACAGGA | -0.134 |
| AATAACAG | 0.133 |
| AGTCGAAG | -0.149 |
| ATACCCGC | -0.0101 |
| CTACGGGA | -0.117 |
| ACCTCGCT | -0.14 |
| CTTAAGGA | -0.212 |
| ATGCTCTC | -0.291 |
| ACGTGGCG | 0.368 |
| GTTCGAAC | 0.0349 |
| AGGTGCGG | -0.218 |
| TATATAGA | 0.229 |
| ATCGAAAG | 0.0369 |

| Sequence | PBM E-score |
| --- | --- |
| GGTGCACA | -0.0357 |
| AAACATTT | 0.0986 |
| AAGACAGA | 0.0638 |
| CGTTAGAC | 0.122 |
| ATTCGCAC | 0.046 |
| AGGCCGCG | -0.197 |
| CAAACTCG | -0.104 |
| AGTATGAG | 0.129 |
| ACCGGAAT | -0.209 |
| GAACGGAA | -0.17 |
| CAAATGAG | 0.0267 |
| GATAGAGA | -0.084 |
| CGGATGCC | -0.0959 |
| AATATTGG | -0.0283 |
| AAAACGAA | 0.157 |
| AGCCCGTC | -0.06 |
| AATGGTTG | -0.00536 |
| ACAGACGT | 0.301 |
| GCCACCCC | -0.268 |
| CACATATA | 0.188 |
| CATTGATA | 0.00658 |
| TGAAGTCA | 0.0809 |
| GCCTATTA | 0.0771 |
| CACGACAG | -0.0151 |
| CCCTGGAC | -0.188 |

| Sequence | PBM E-score |
| --- | --- |
| CATGAACA | 0.0599 |
| AATTCTCC | -0.127 |
| ACCACTAA | 0.237 |
| AAGGTGGT | -0.106 |
| ACGACAAT | 0.208 |
| ATTAGAGA | 0.126 |
| CGAACAAG | -0.0925 |
| CCAGTCAG | -0.25 |
| GCATGATA | 0.0908 |
| AGTGTGTC | 0.104 |
| ACACCCGT | -0.176 |
| GTCCGAAA | 0.114 |
| GGGCTATA | -0.237 |
| CGCAAGGA | 0.0747 |
| CGCGGAGC | -0.201 |
| CATAGTGC | 0.111 |
| GGTTTGAA | 0.00149 |
| AAGTTAGC | 0.027 |
| ATATTCCG | -0.0674 |
| TGTGCACA | 0.0883 |
| GCAGACGA | -0.0891 |
| CCGTTAGA | 0.00854 |
| CAACGTAG | 0.354 |
| ATACGACG | 0.234 |
| CGCTCTTA | 0.112 |

| Sequence | PBM E-score |
| --- | --- |
| CTGACCCA | -0.172 |
| GCGGCACC | -0.221 |
| GCTGCGAC | -0.0513 |
| GCAAGTTA | -0.00746 |
| CCCGTTGC | -0.174 |
| AACTGTTC | -0.179 |
| ACGCGCAG | 0.154 |
| GAAATCGC | -0.057 |
| CCCCCTAG | -0.346 |
| GATACCCC | -0.186 |
| ACTCATCT | 0.0336 |
| CAATTCGG | -0.0702 |
| CTGGAGAA | -0.324 |
| AATCCAGC | -0.0959 |
| CCACACTA | 0.0555 |
| CCTATGTC | -0.0206 |
| AGCCCCAA | -0.23 |
| CTGAATAC | 0.15 |
| TCATGCAA | 0.08 |
| AAGTCGAT | -0.128 |
| CAGAAAAG | 0.0471 |
| AAATCTCC | -0.23 |
| CAGATAGG | -0.101 |
| AGCGATAC | 0.0619 |
| AACTCACT | -0.148 |

| Sequence | PBM E-score |
| --- | --- |
| CGGCTAGC | -0.23 |
| TCCCCGCA | -0.0758 |
| AGTCTTGG | 0.0188 |
| CATTGGCA | -0.0861 |
| GGCCAAAC | -0.119 |
| AAGAACAT | 0.13 |
| CAAAGTTG | 0.037 |
| CACATCGA | 0.0208 |
| GTCCGAGA | 0.0404 |
| AAGGGGAT | -0.0404 |
| ATATTCGC | 0.168 |
| AATAGTCG | -0.0133 |
| GCGAGCCC | -0.28 |
| CGGTAACA | 0.103 |
| CCTAGATA | -0.227 |
| GCCCGTGA | -0.154 |
| AAGAGGCG | -0.0776 |
| AGAGCCAC | -0.214 |
| AAGCACTT | -0.0485 |
| CTGTAGGA | -0.103 |
| CGTGACCA | -0.0216 |
| GCCTAGCC | -0.205 |
| AGCTCATA | 0.177 |
| AGCATTGA | 0.0274 |
| TTCGTAAA | 0.32 |

| Sequence | PBM E-score |
| --- | --- |
| AGGGAGCA | -0.338 |
| ACACAACT | 0.021 |
| AGTGCGCG | -0.0114 |
| GTGATCAA | 0.189 |
| ATGTTACC | 0.103 |
| CTAATGAG | -0.138 |
| CCGCACGA | -0.0576 |
| ATAGCACG | -0.0293 |
| AAGGTATT | 0.131 |
| CCCATGAC | 0.29 |
| CAATAGTC | -0.085 |
| AAAACGTT | 0.207 |
| ACCGGATA | -0.0414 |
| CCTCAAGC | -0.248 |
| GGCAGGCA | -0.261 |
| GTGGACTA | 0.0315 |
| GTGCGGGA | -0.0866 |
| ACGCGCCT | 0.104 |
| CAAATAAA | 0.101 |
| AAGCGGTG | -0.19 |
| AACGGCTG | -0.249 |
| AAATTGGC | -0.00929 |
